Among all 340,000 compounds or so, about 6,900 (2%) were called active. Cut-off read from the data, not from the text of the source: active = inhibition above about 30%; inactive = below that, where a call was filed. The list shows a part of the results, in another mix than the full data. Entries without a call were filed so in the source.

Chain of UniProt P14416 (P14416 whole entry, looked up): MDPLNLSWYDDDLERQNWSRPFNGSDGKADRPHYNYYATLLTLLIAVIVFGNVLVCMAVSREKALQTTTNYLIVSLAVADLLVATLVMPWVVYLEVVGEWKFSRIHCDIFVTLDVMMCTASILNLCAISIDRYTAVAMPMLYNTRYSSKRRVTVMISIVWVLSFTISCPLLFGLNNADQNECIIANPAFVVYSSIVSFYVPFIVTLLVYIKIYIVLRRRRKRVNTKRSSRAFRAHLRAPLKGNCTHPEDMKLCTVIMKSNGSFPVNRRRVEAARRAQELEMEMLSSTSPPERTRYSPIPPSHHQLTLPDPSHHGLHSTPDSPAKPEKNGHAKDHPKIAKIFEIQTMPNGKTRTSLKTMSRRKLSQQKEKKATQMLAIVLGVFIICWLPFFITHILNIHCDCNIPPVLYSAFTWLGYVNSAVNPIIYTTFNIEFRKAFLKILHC

The target in the test is D(2) dopamine receptor (Homo sapiens) (UniProt P14416). The test can be described thus: HTS Assay for Allosteric Antagonists of the Human D2 Dopamine Receptor: Primary Screen for Antagonists. Note: 0% is about no effect. Particulars: HEK293 TREx D2 cells, calcium flux, dopamine EC80; at 10 µM; stronger effect = higher value. In short, it runs like this:
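In this primary screen, negative modulation is detected by tracking calcium flux after an EC80 dopamine challenge in inducible HEK293 T-REx D2 cells preexposed to test compound for 180 s.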
With `CCCCNC(=O)c1cccc(-n2cnc3cccnc32)c1C`, the inhibition (in general, the change of the read-out against control, counted positive when it falls) worked out at 8.59%.

As to `CC1CCCCN1C(=O)c1ccc2c(c1)N(Cc1cccc(Cl)c1)C(=O)c1ccccc1S2=O` (stereo not given), the inhibition was found to be 7.62%.

In the case of `CC1CC(OCC(O)CN2CCOCC2)CC(C)(C)C1` (stereo not given), the inhibition was active: 45.8%.

Consider `Cc1cc(N(C)Cc2ccccc2)n2nc(-c3ccc(C(C)(C)C)cc3)nc2n1`, for which the inhibition was -1.28%.

Consider `CCc1cccc(NC(=O)Cn2c(=O)c(C(F)(F)F)nc3ccccc32)c1`, for which the inhibition is -0.637%.

In the case of `Cc1cccc(CSc2nc3cc(C(=O)NC4CCCC4)ccc3c(=O)n2Cc2ccccc2)c1`, the inhibition is -11.8%.

On to `Cc1cc(C)c2c(=O)cc(C(=O)Nc3nc4ccc(F)cc4s3)oc2c1`, for which the inhibition was -0.698%.

Turning to `CCCN(CCC)CC(O)Cn1cc(/C=C/C(=O)c2ccc(OC)cc2)c2ccccc21` (stereo not given), the inhibition is 16.8%.

With `CCC(CC)C(=O)Nc1c(C(=O)N2CCN(c3ccccc3)CC2)oc2ccccc12`, the inhibition was -28.6%.

`COc1cccc(-c2cc(C(=O)N3CCN(c4ccccc4OC)CC3)no2)c1`: the inhibition turned out to be 2.79%.

Turning to `CCc1ccc(NC(=O)c2sc3nc4c(cc3c2N)CN(CC)CC4)cc1`, the inhibition was -10.2%.

With `COc1ccc(Cl)cc1NC(=O)Cc1coc2c(C)c(C)ccc12`, the inhibition was determined as 4.22%.

For `Cc1ccccc1NC(=O)c1ccc(NC(=O)c2ccco2)cc1`, the inhibition is active: 44.8%.

For the compound `COC(=O)c1ccc(NC(=O)CCc2c(C)nn(-c3ccc(N4CCOCC4)nn3)c2C)cc1`, the inhibition amounted to 2.4%.

As to `O=C(Nc1ccc(F)cc1)c1ccc(Cn2nc(N3CCN(c4ccccc4)CC3)ccc2=O)o1`, the inhibition was -2.22%.

Regarding `COc1ccc(CCNc2nc(-c3ccc(Cl)cc3)cc(C(F)(F)F)n2)cc1OC`, the inhibition worked out at 15.3%.

With `CCOC(=O)c1c(C)[nH]c(C)c1S(=O)(=O)N1CCC(C(=O)N2CCN(c3cccc(C)c3C)CC2)CC1`, the inhibition worked out at 5.47%.

Take `COc1ccccc1-c1nc2c(c(SCc3ccc(F)cc3Cl)n1)Cc1c(CO)cnc(C)c1O2`: the inhibition was -2.84%.

Regarding `COc1ccccc1C(=O)Nc1c(C(=O)N2CCN(c3ccc(F)cc3)CC2)oc2ccccc12`, the inhibition was -9.7%.

As to `Cc1ccc2c(=O)cc(C(=O)N(Cc3ccccc3Cl)C3CCS(=O)(=O)C3)oc2c1` (stereo not given), the inhibition stood at 6.49%.

For the compound `CCN1CCN(CCCNC(=O)Cn2c(-c3cccs3)cc3ccccc32)CC1`, the inhibition is -4.63%.

As to `COc1ccc(-c2cc(-c3ccccc3)c(C#N)c(SCC(O)CS(=O)(=O)Cc3ccccc3)n2)cc1` (stereo not given), the inhibition is -1.24%.

Regarding `CC(O)CNC(=O)C(=O)Nc1c2c(nn1-c1ccc(Cl)cc1)CSC2` (stereo not given), the inhibition came to 10.6%.

Turning to `COc1ccc(NC(=O)C2CCCN(C(=O)c3cnn(-c4ccccc4)c3-n3cccc3)C2)cc1` (stereo not given), the inhibition was 2.94%.

On to `CCOc1ccc(CCNC(=O)CS(=O)(=O)Cc2nc(-c3cccc(Cl)c3)oc2C)cc1`, for which the inhibition was -6.81%.

As for `COc1cc(Br)cc(/C=N/N(CCO)C2=NS(=O)(=O)c3ccccc32)c1OC`, the inhibition is active: 38%.

Regarding `Cc1ccc(C)c(NC(=O)Cn2c(=O)n(-c3ccccc3C)c(=O)c3c2c2cc(C)ccc2n3C)c1`, the inhibition is -7.1%.

In the case of `CC(C)n1cc2c(c1-c1ccccc1Cl)c(=O)n(C)c(=O)n2C`, the inhibition was -3.4%.

With `Cc1cccc(C(=O)Nc2cccc(OCc3cc(=O)n4cc(C)sc4n3)c2)c1`, the inhibition was -18.2%.

For `Cc1ccc(C(C)C)c(OCC(=O)NCC2(N3CCOCC3)CCCCC2)c1`, the inhibition is -15.1%.

For the compound `Cc1ccc(-n2cc3c(c2-c2ccccc2Br)c(=O)n(C)c(=O)n3C)cc1N`, the inhibition turned out to be 2.25%.

For `Cc1ccc(C(=O)NCC(=O)OCc2cc(=O)n3c(C)csc3n2)cc1`, the inhibition amounted to 10.9%.

`Cc1ccc(-n2nc3cc(C)c(NC(=O)COc4ccccc4)cc3n2)cc1`: the inhibition was found to be 0.174%.

As for `CCOC(=O)CCN(c1ccccc1)S(=O)(=O)c1cc(-c2cc(C)no2)ccc1C`, the inhibition was -3.3%.

With `Cc1cn(C)c(CC(=O)N2CCN(c3cccc(C(F)(F)F)c3)CC2)c1C(=O)O`, the inhibition is -6.92%.

`CCc1cc2c(cc3c(=O)n(CC(=O)NC4CCCCC4)nc(CC)n32)s1`: the inhibition is -7.84%.

Turning to `O=C(NCC(c1cccnc1)N1CCc2ccccc21)c1ccc(F)c(F)c1` (stereo not given), the inhibition came to 20.1%.

As to `Cc1cc(C)c2oc(C(=O)Nc3c(C)n(C)n(-c4ccccc4)c3=O)cc(=O)c2c1`, the inhibition is 0.151%.

On to `CC(=O)N1CCc2c(sc3c2c(=O)n(-c2ccccc2C)c(=O)n3CC(=O)c2ccccc2)C1`, for which the inhibition is 1.41%.

As for `COC(=O)c1ccc(C2C=C(c3ccc(Cl)cc3)Nc3nc4ccccc4n32)cc1` (stereo not given), the inhibition is 2.76%.

With `O=C(CSc1nc(-c2ccc(F)cc2)nc2c1Cc1ccccc1O2)Nc1cccc(C(=O)O)c1`, the inhibition was 0.71%.

As to `N#Cc1cccc(NC(=O)C2CCN(c3cnccn3)CC2)c1`, the inhibition was -11.3%.

For the compound `CC(=O)Nc1ccc(NC(=O)c2cc3c(=O)n(Cc4cccnc4)ccc3nc2C)cc1`, the inhibition was determined as 10.8%.

On to `Cc1cc(C)n(CCc2nc3c4ccccc4nc(SCc4ccc(Cl)cc4)n3n2)n1`, for which the inhibition stood at 0.275%.

As to `O=C(NC1(C(F)(F)F)N=C(c2ccccc2)N(C2CCCCC2)C1=O)c1ccc(F)cc1` (stereo not given), the inhibition was -9.8%.

For the compound `CCOc1ccc(NC(=O)CC2C(=O)N(c3ccc(C)cc3)C(=O)N2C2CCCCC2)cc1` (stereo not given), the inhibition is -5.07%.

Take `Cn1ccc2cc(S(=O)(=O)N3CCCC(C(=O)NCc4ccc(F)cc4)C3)ccc21` (stereo not given): the inhibition was -4.28%.

On to `COc1ccc(-c2nc(SCC(=O)c3ccc(Br)cc3)n[nH]2)cc1`, for which the inhibition is 1.02%.

In the case of `Cc1c(CNC2CCC(C)CC2)c(C(=O)O)c(C)n1Cc1ccccc1F` (stereo not given), the inhibition is -7.47%.

As to `CCC1CN(C(=O)Nc2ccccc2C(F)(F)F)c2ccccc2O1` (stereo not given), the inhibition amounted to 6.66%.

As to `COc1ccc(/C=C(/C#N)c2nc(-c3cc4ccccc4oc3=O)cs2)cc1`, the inhibition was -4.55%.

Turning to `NS(=O)(=O)c1ccc(NC(=O)Cc2cccs2)cc1`, the inhibition is active: 38.6%.

As for `Cc1ccc2c(c1)c(=O)c(C(=O)c1ccccc1)cn2Cc1ccccc1F`, the inhibition is -20.6%.

`CCOc1cccc(C(=O)Nc2nnc(S(=O)(=O)N(C)c3ccc(C)cc3)s2)c1`: the inhibition is -19.4%.

In the case of `COc1ccc(NC(=O)CC2C(=O)N(c3ccccc3)C(=O)N2CCC2=CCCCC2)cc1` (stereo not given), the inhibition stood at 21.3%.

On to `COc1cc(NC(=O)C2CCN(S(=O)(=O)c3c(C)noc3/C=C/c3cccs3)CC2)cc(OC)c1`, for which the inhibition worked out at 11.6%.

Turning to `COc1ccc(S(=O)(=O)N(CC(=O)Nc2ccc(OC)cc2OC)c2ccc(Cl)cc2)cc1`, the inhibition was -17.1%.

In the case of `FC(F)(F)c1ccccc1/C=N/N1CCN(Cc2ccccc2)CC1`, the inhibition was active: 30.1%.

As to `CCOC(=O)c1ccc(CSc2nnc3cc(C)c4ccccc4n23)cc1`, the inhibition is -1.13%.

As to `COc1ccccc1NC(=O)CN(c1ccc(C(C)C)cc1)S(=O)(=O)c1c(C)noc1C`, the inhibition was -2.94%.

With `O=C(NC1CCCCC1)c1ccc2c(c1)sc1nc(-c3ccccc3)cn12`, the inhibition was determined as 7.58%.

Regarding `N#Cc1ccc(C(=O)N2CCN(c3nc4ccc(F)cc4s3)CC2)cc1`, the inhibition was determined as 7.77%.

As to `COc1ccc(-c2oc3ncn4nc(-c5ccc(Cl)cc5)nc4c3c2-c2ccc(OC)cc2)cc1`, the inhibition amounted to 11.6%.

Take `COc1cc2c(cc1OC)C(c1ccc(Cl)cc1)N(c1ccc(C)c(F)c1)C(=O)C2` (stereo not given): the inhibition was found to be 4.3%.

Regarding `CN(C)S(=O)(=O)c1cc(NC(=O)CNCc2ccc(F)cc2)ccc1Cl`, the inhibition is active: 43.8%.

In the case of `Cc1cccc(NC(=O)CSc2nc3ccc(NC(=O)c4cccs4)cc3s2)c1`, the inhibition was 1.1%.

For the compound `CC(C)c1ccc(OCc2cc(=O)n3c4c(sc3n2)CCCC4)cc1`, the inhibition was found to be 16.1%.

As for `COc1ccc(OCC(=O)Nc2cc(-c3cccc(Cl)c3)nn2-c2ccccc2)cc1`, the inhibition is -8.73%.

In the case of `COc1ccc(C(CNC(=O)c2oc3ccccc3c2C)N2CCCC2)cc1` (stereo not given), the inhibition was active: 76%.

`CCc1ccc(Nc2cc(C)nc3nc(Cc4ccc(Cl)cc4)nn23)cc1`: the inhibition was 3.65%.

Consider `COc1ccc(C2c3c(n(C)c4ccccc34)C(=O)N2CC(=O)Nc2ccc(Cl)cc2)cc1` (stereo not given), for which the inhibition is 0.438%.

Consider `CCc1ccc(N2CCn3c2nc2c3c(=O)n(Cc3cccc(C)c3)c(=O)n2C)cc1`, for which the inhibition is -10.7%.

Turning to `COc1cc2nc(SCC(=O)Nc3ccc(F)cc3)n3nc(CCn4c(C)nc5ccccc54)nc3c2cc1OC`, the inhibition amounted to 6.01%.

For `Cc1ccc(OC(=O)c2snnc2C)cc1C`, the inhibition is -3.48%.

For the compound `O=C(CSc1ncc2c(n1)-c1ccccc1N(Cc1ccc(F)cc1)S2(=O)=O)c1ccc(Br)cc1`, the inhibition is -3.29%.

As to `Cc1ccc(NC(=O)C(=O)NCC(c2ccc3c(c2)OCO3)N2CCOCC2)c(C)c1` (stereo not given), the inhibition is -8.91%.

As to `CCCN1CCN(CCNC(=O)Nc2cc(OC)cc(OC)c2)CC1`, the inhibition was -3.68%.

Take `COc1cc2c(=O)n(Cc3ccccc3)c(=O)n(CC(=O)Nc3cc(C(F)(F)F)ccc3Cl)c2cc1OC`: the inhibition turned out to be 23.7%.

Take `CN1C(C(=O)Nc2ccc(OC(F)(F)F)cc2)=CC(c2ccc3c(c2)OCO3)=NS1(=O)=O`: the inhibition is 3.51%.

Regarding `O=C(Cn1cccc1C(=O)c1ccccc1)NCc1ccc(F)cc1`, the inhibition was found to be 3.62%.

Take `CCN(CC)c1ccc(NS(=O)(=O)c2ccc3c(c2)CCCN3C(C)=O)c(C)c1`: the inhibition was 12.8%.

On to `O=C(CN1CCN(S(=O)(=O)c2ccc(Cl)cc2)CC1)Nc1ccc(F)cc1F`, for which the inhibition was active: 39%.

`COC(=O)c1cc2oc(C)cc2n1Cc1c(C)cc(C)cc1C`: the inhibition amounted to 1.68%.

Turning to `COc1ccc2c(c1)CC(C(=O)N1CCC(C(N)=O)CC1)CO2` (stereo not given), the inhibition was -10.9%.

With `COc1ccc(CCNC(=O)c2cc(Sc3cccc(Cl)c3)nc3ccccc23)cc1OC`, the inhibition was found to be 6.42%.

With `COc1ccc2c(c1)NC(c1ccc(OCC(C)C)cc1)=NC(c1ccncc1)=N2`, the inhibition was found to be 7.72%.

In the case of `CCOc1ccc(-c2n[nH]c3c2C(c2ccccc2OC)N(c2ccc(Br)cc2)C3=O)cc1` (stereo not given), the inhibition was 8.12%.

`O=C(Nc1cc(Cl)cc(Cl)c1)c1ccc(F)c(S(=O)(=O)N2CCCCCC2)c1`: the inhibition was -8.41%.

Take `Cc1ccc(C(C)C)c(OCCn2cc(C(=O)c3ccco3)c3ccccc32)c1`: the inhibition was -1.37%.

For the compound `COc1ccccc1N1CCN(C(=O)c2oc3ccccc3c2NC(=O)C(C)Oc2ccccc2)CC1` (stereo not given), the inhibition was -4.87%.

As to `CCC(=O)N1CCc2cc(Br)cc(S(=O)(=O)N3CCN(c4ccccc4)CC3)c21`, the inhibition is -9.78%.

As for `COc1ccc(NC(=O)c2ccco2)cc1NC(=O)COc1cc(C)cc(C)c1`, the inhibition is -8.61%.

Consider `COc1ccc(CNC(=O)C2CCCN(S(=O)(=O)c3ccc4c(c3)CCCN4C(C)=O)C2)cc1` (stereo not given), for which the inhibition was -0.783%.

On to `CCc1nnc2c(NCc3ccc(F)cc3)nc3ccccc3n12`, for which the inhibition is 17.5%.

Regarding `CCOc1ccc2nc(N3CCCC(C(=O)Nc4ccc(Br)c(C)c4)C3)sc2c1` (stereo not given), the inhibition is -13.9%.

These data come from PubChem BioAssay AID485344 (National Center for Advancing Translational Sciences (NCATS), 2010).
